The text below walks through data of PubChem BioAssay AID1508642 (National Center for Advancing Translational Sciences (NCATS), 2021).

The campaign covered roughly 43,000 compounds. About 200 (0.47%) were called active. Roughly 12% stayed inconclusive and do not appear here. The call rests on the fitted dose curve; in most records, active means well fitted cell-killing curve with a large enough effect; inconclusive means small, poorly fitted or top-dose-only effect, or effect the other way; inactive means flat fitted curve, though single readings scatter. Some of the results follow.
On the % scale 0 is the no-effect control and ±100 the full control effect.

The assay in a line: Cell viability qHTS assay in S16 Pmp22-F2sN cells. Further: nearly all actives have a fitted effect of over 65% in size. Particulars: S16 Pmp22-F2sN Schwann cells viability, CellTiter-Glo, 24 h; series mostly up to 57.5 µM; activity change, negative = cytotoxicity: at the top concentration. Summed up: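 Used to flag compounds lowering reporter output through toxicity, this quantitative HTS measures ATP-based CellTiter-Glo luminescence in S16 Pmp22-F2sN Schwann cells after 24 h compound exposure at 37C.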
For orientation: In qHTS, concentration-response curves come from the screen itself.
Take `CCOC(=O)c1[nH]c(C)c(CCC(=O)NCc2ccccc2Cl)c1C`: the “activity change, negative = cytotoxicity” value was inactive: -4.96%.
With `N#Cc1ccc(CSc2nc3c(c(=O)[nH]2)CCC3)cc1` the figure was inactive: -1.38%.
With `COc1cc(NC(=O)CSc2nc(-c3ccc(C)cc3)nc3c2Cc2ccccc2O3)cc(OC)c1`, the “activity change, negative = cytotoxicity” value was inactive: 18.2%.
Turning to `O=C(CC1C(=O)OCCN1Cc1ccccc1)Nc1ccc(F)cc1` (stereo not given), the “activity change, negative = cytotoxicity” value was inactive: -19.4%.
Next, `Cc1ccc(C)c(NC(=O)Cn2cc(C(=O)c3ccc(Cl)cc3)c(=O)c3ccc(C)nc32)c1`: inactive: 0.801%; `Cc1ccc(S(=O)(=O)c2nc(-c3cccc(C)c3)oc2N2CCN(c3ccccc3)CC2)cc1`: inactive: 1.5%; `CCCSc1ncc(Cl)c(C(=O)Nc2nc3ccc(OCC)cc3s2)n1`: inactive: 9.48%.
Take `Cc1nc2nc(SCC(=O)NCCc3ccc(Cl)cc3)nn2c(C)c1Cc1ccccc1`: the “activity change, negative = cytotoxicity” value was inactive: 1.62%.
Next, `COC(=O)c1sc2cccc(F)c2c1S(=O)(=O)N1CCN(c2ccc(F)cc2)CC1`: inactive: 0.827%.
With `Cc1ccc(CNC(=O)c2ccc3c(=O)n(-c4ccccc4)c(=O)[nH]c3c2)cc1` the figure was inactive: 13.9%; with `CCOC(=O)CC1c2cc(OCC)c(OCC)cc2CCN1C(=O)Nc1cccc(Cl)c1` (stereo not given), inactive: 5.08%; with `Cc1cccn2c(=O)c3cc(C(=O)NCc4ccccc4)c(=N)n(CCOCCO)c3nc12`, inactive: -1.37%.
In the case of `CCc1ccccc1NC(=O)CSc1nc(-c2ccccc2OC)nc2c1Cc1c(CO)cnc(C)c1O2`, the “activity change, negative = cytotoxicity” value is inactive: -13.5%.
Next, `COC(=O)C(CCSC)NC(=O)c1cc2c(n(-c3ccc(C)cc3)c1=O)CC(C)(C)CC2=O` (stereo not given): inactive: -0.548%.
With `Cc1ccc2c(c1)cc1c(=O)n(CC(=O)NC3CCCCC3)nc(C)n12` the figure was inactive: 5.25%.
With `COc1ccc(CNC(=O)c2cc3c(s2)-c2ccccc2OC3)cc1` the figure was inactive: 18%.
As to `CCC(C)NC(=O)C(=O)Nc1c2c(nn1-c1ccccc1)CS(=O)(=O)C2` (stereo not given), the “activity change, negative = cytotoxicity” value was inactive: -2.15%.
Next, `CC(C)CCNC(=O)C1CCC(Cn2c(=O)c3sccc3n(CC(=O)NC(C)C)c2=O)CC1` (stereo not given): inactive: -5.05%; `O=C(Cn1c(=O)n(-c2ccc(F)c(Cl)c2)c(=O)c2sc3ccccc3c21)NC1CCCC1`: inactive: 3.3%.
With `Cc1ccc(-n2c(=O)c3oc4ccccc4c3n(Cc3ccccc3F)c2=O)cc1C` the figure was inactive: 0.648%.
With `O=C(CN1C(=O)CCSc2ccccc21)Nc1ccccc1F` the figure was inactive: 17.3%; with `COc1ccc(NC(=O)CSc2nc3c(oc4ccccc43)c(=O)n2-c2ccc(C)c(C)c2)cc1`, inactive: 5.7%; with `CCOC(=O)c1c(NC(C)=O)c2c3c(sc2n1Cc1nc(-c2ccccc2C)oc1C)CCCC3`, inactive: 1.62%.
Take `O=C(c1ccc2c(c1)N(Cc1ccc(Cl)cc1)C(=O)c1ccccc1S2(=O)=O)N1CCCCC1`: the “activity change, negative = cytotoxicity” value was inactive: -2.67%.
Next, `CC1CN(C(=O)CCC(=O)NCc2ccc(F)cc2)c2cc(Cl)ccc2O1` (stereo not given): inactive: -2.39%.
With `Cc1c(C)n(C)c2ccc(C(=O)N3CCN(c4ccccc4)CC3)cc12` the figure was inactive: -4.3%; with `Cc1c(Cl)cccc1NC(=O)C(C)n1nnc2sc3c(c2c1=O)CCCC3` (stereo not given), inactive: -1.56%.
With `CSc1ncc(Cl)c(C(=O)N(Cc2ccc(N(C)C)cc2)Cc2ccco2)n1` the figure was inactive: -22%.
As for `Cc1cc(C)cc(NC(=O)Cn2c(=O)c3ccccc3n3nncc23)c1`, the “activity change, negative = cytotoxicity” value was inactive: 2.16%.
Next, `CCOC(=O)c1ccccc1NC(=O)c1sc2nc3n(c(=O)c2c1C)CCCC3`: inactive: 2.71%; `Cc1ccc2c(=O)cc(C(=O)Nc3ccc(S(=O)(=O)N4CCCCCC4)cc3)oc2c1C`: inactive: 3.15%; `CCc1ccc(CNC(=O)CN2C(=O)c3cccnc3Oc3ccc(C)cc32)cc1`: inactive: 10.3%.
Regarding `CC(CC(=O)Nc1ccc(Br)cc1F)S(=O)(=O)c1ccc2c(c1)NC(=O)CO2` (stereo not given), the “activity change, negative = cytotoxicity” value was inactive: -14.2%.
`CCOC(=O)C1CCN(C(=O)C2CCN(C3=NS(=O)(=O)C(c4ccc(C)c(C)c4)=C3C)CC2)CC1`: the “activity change, negative = cytotoxicity” value was inactive: 5.8%.
Next, `CCc1ccc(Cc2cnc(NC(=O)c3ccc4c(c3)CC(c3ccccc3)OC4=O)s2)cc1` (stereo not given): inactive: 8.85%.
Next, `Cc1cccc(C2CC(=O)Oc3c2c(=O)n(C)c2ccccc32)c1` (stereo not given): inactive: 2.11%; `Cc1ccc(CNC(=O)Cn2cc(C(=O)c3ccc(F)cc3)c(=O)c3ccc(C)nc32)cc1`: inactive: -5.97%.
With `COc1cc(C(=O)N2CCN(CCc3ccccn3)CC2)cc(OC)c1OC` the figure was inactive: -0.521%.
As to `CCn1ccc2cc(S(=O)(=O)N3CCC(C(=O)NCCc4ccc(C)cc4)CC3)ccc21`, the “activity change, negative = cytotoxicity” value is inactive: -1.9%.
Next, `COc1ccc(NC(=O)CSCc2cnn(-c3ccccc3)c2-n2cccc2)cc1`: inactive: -13.6%.
Next, `CCC(C)NC(=O)c1ccc2nc(Cc3ccc(OC)cc3)oc2c1` (stereo not given): inactive: -0.571%.
In the case of `NS(=O)(=O)c1ccc(NC(=O)c2ccc3c(c2)CCN3S(=O)(=O)c2ccccc2)cc1`, the “activity change, negative = cytotoxicity” value is inactive: 0.822%.
Next, `Cc1ccc(N(CC(=O)Nc2cc(C)cc(C)c2)S(=O)(=O)c2cccc3nonc23)cc1`: inactive: -4.14%.
With `CC1=C(c2ccc(C)cc2)S(=O)(=O)N(Cc2ccc(C(=O)Nc3ccc(F)cc3C)cc2)C1=O` the figure was inactive: -12.5%; with `Cc1c(Cl)cccc1NC(=O)CSc1ncccc1C(=O)Oc1ccccc1Cl`, inactive: -2.52%; with `COC(=O)C(CCSC)NC(=O)c1c(C)oc2ncn(CC(C)C)c(=O)c12` (stereo not given), inactive: -29.4%.
On to `Cc1ccc(NC(=O)C(=O)NCC(c2cccnc2)N2CCN(C)CC2)cc1F` (stereo not given), for which the “activity change, negative = cytotoxicity” value was inactive: -5.23%.
Consider `CCOCCSc1c(C)cnc2c1c(=O)n(C)c(=O)n2C`, for which the “activity change, negative = cytotoxicity” value was inactive: 0.375%.
Next, `COc1cc2ccccc2cc1C(=O)Nc1ccc(Cl)c(-c2nc3ccccc3o2)c1`: inactive: -23.2%; `CCOc1ccc(NC(=O)Cn2ccn(-c3ccc(F)c(F)c3)c(=O)c2=O)cc1`: inactive: 4.78%.
As for `COc1ccc(CNC(=O)c2cccc(-n3cnc4cccnc43)c2C)cc1`, the “activity change, negative = cytotoxicity” value was inactive: 7.7%.
Next, `COc1cccc(C(=O)Nc2ccc(-c3cn4cccnc4n3)cc2)c1OC`: inactive: 19.2%.
With `O=C(Nc1ccc(F)cc1)[C@H](CSCc1ccccc1)N1Cc2ccccc2C1=O` the figure was inactive: 1.06%; with `Cc1ccc(N2CCN(C(=O)Cc3c(C(=O)O)c(C)cn3C)CC2)c(C)c1`, inactive: -5.51%; with `Cc1ccc(S(=O)(=O)c2nnn3c2nc(N2CCN(c4ccc(F)cc4)CC2)c2cc(Cl)ccc23)cc1C`, inactive: 2.28%.
Next, `O=C(COC(=O)CCCC1=NS(=O)(=O)c2ccccc2N1)Nc1ccc(Br)cc1`: inactive: -1.77%; `CCOc1ccc(OCC)c(NC(=O)C2CCN(S(=O)(=O)c3ccc(Br)s3)CC2)c1`: inactive: 3.38%; `COc1ccc2nc(SCC(=O)c3c(C)[nH]c4ccccc34)nc(C)c2c1`: inactive: 17.6%.
`CCc1ccc(NC(=O)CSc2nc3nccnc3c(=O)n2CCc2c[nH]c3ccccc23)cc1`: the “activity change, negative = cytotoxicity” value is inactive: 5.29%.
With `CCc1ccc(NC(=O)C2CCN(C(=O)N3CC(CC)Oc4ccccc43)CC2)cc1` (stereo not given) the figure was inactive: -15%.
